Results from PubChem BioAssay AID1347073 (National Center for Advancing Translational Sciences (NCATS), 2019).
In all, about 45,000 compounds went through this assay and about 200 (0.44%) were called active. About 7% were inconclusive and are not listed. Calls come from the whole dose curve; as a rule, active = well fitted activation curve with a large enough effect; inconclusive = small, poorly fitted or top-dose-only effect; inactive = no such curve, though single readings can be large or run the other way. The list shows a part of the results.

experiment: qHTS of TDP-43 Inhibitors: NCGC Sytravon Library Screen; conditions: yeast TDP-43 toxicity rescue, BacTiter-Glo growth, 24 h; series mostly up to 46.1 µM; growth rescue (activation): at the top concentration; note: 0% is about no effect; nearly all actives have a fitted effect of over 55% in size
Summary of the method: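 TDP-43-expressing yeast, pregrown in raffinose, seeded at OD600 0.02 in galactose medium with compound for 24 hr at 30 deg C. Growth read by BacTiter-Glo luminescence, so rescue of toxicity appears as activation.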

Row | SMILES | growth rescue (activation)
1 | COC(=O)c1c(C)[nH]c(C(=O)CSc2nnnn2-c2ccccc2)c1C | inactive: 9.58%
2 | COc1ccc(NC(=O)CCC(=O)c2cc(C)sc2C)cc1 | inactive: 15.5%
3 | O=C(CNS(=O)(=O)c1cccc(Br)c1)NCC1CCCCC1 | inactive: 12.2%
4 | COc1ccc(S(=O)(=O)N2CCOCC2)cc1NC(=O)CN1CCCc2ccccc21 | inactive: -2.48%
5 | COc1ccc(S(=O)(=O)N(CC(=O)NCc2ccccn2)Cc2ccccc2)cc1 | inactive: 8.2%
6 | O=C(c1cc2ccccc2oc1=O)N(Cc1cccs1)CC1CCCO1 (stereo unspecified) | inactive: -7.61%
7 | Cc1ccc(OCC(=O)NCCCNC(=O)c2ccccn2)cc1 | inactive: 0.211%
8 | CSc1ccc(C(=O)C2CCCN(C(=O)c3cccc(N4CCOCC4)c3)C2)cc1 (stereo unspecified) | inactive: 18.4%
9 | Cc1ccc(S(=O)(=O)N[C@H](C(=O)OCC(=O)N2N=C(c3ccc(Cl)cc3)CC2c2ccco2)C(C)C)cc1 (stereo partly specified) | inactive: 15.4%
10 | COCCn1c(Sc2nc(C)cs2)nc2c1c(=O)[nH]c(=O)n2C | inactive: 19.9%
11 | CCN(C(=O)COC(=O)c1cccn1C)C1CCS(=O)(=O)C1 (stereo unspecified) | inactive: -2.53%
12 | NS(=O)(=O)c1ccc2nc(NC(=O)c3ccc(Br)o3)sc2c1 | inactive: 4.03%
13 | COc1ccc2c(c1)nc(N)n2Cc1ccccc1 | inactive: 13.4%
14 | COc1ccccc1N(C)S(=O)(=O)c1ccc(Cl)c(C(=O)OCc2c(C)noc2C)c1 | inactive: 10.7%
15 | Cc1nnc(C)c2c(C)n(-c3ccc(Cl)c(N)c3)c(C)c12 | inactive: -0.461%
16 | NC(=O)C1CCN(c2oc(-c3cccs3)nc2S(=O)(=O)c2ccc(Cl)cc2)CC1 | inactive: 22.8%
17 | CCc1ccc(C(=O)NCC2(c3ccccc3)CCOCC2)o1 | inactive: -4.66%
18 | CC12CCC(C(=O)NCc3cccnc3)(OC1=O)C2(C)C (stereo unspecified) | inactive: 15.3%
19 | CCc1ccc(NC(=S)N(CCC(C)C)C2CCN(C(C)=O)CC2)cc1 | inactive: 32.7%
20 | O=C1N(Cc2cccc(Cl)c2)C[C@@H]2C[C@@H](c3cccc4ncccc34)N3CCC[C@@]123 | inactive: 10.2%
21 | C=CCN(CC(=O)NC1CCCC1)C(=O)C(=O)Nc1ccc2c(c1)OCCO2 | inactive: -10.8%
22 | CCCn1c(SCC(=O)Nc2cccc(C(=O)OC)c2)nnc1-c1cccnc1 | inactive: -1.01%

Row | SMILES | growth rescue (activation)
23 | CCOCCCN1C(=O)c2ccccc2CC1(C)C(=O)NC1CCCCC1 (stereo unspecified) | inactive: 13.6%
24 | CCCCCC(=O)NNC(=O)c1ccc(F)cc1 | inactive: 4.64%
25 | O=C(COc1cccnc1[N+](=O)[O-])Nc1cccc(S(=O)(=O)N2CCCCC2)c1 | inactive: 0.588%
26 | CCOc1ccc(C(=O)NC(=S)Nc2ccccc2N2CCCCC2)cc1[N+](=O)[O-] | inactive: 22.2%
27 | Cc1nc(C)c(NC(=O)OC(C)C)cc1NC(=O)OC(C)C | inactive: 5.82%
28 | NC(=O)COC(=O)c1ccccc1SCC(=O)NC1CCCCCC1 | inactive: 3.46%
29 | CCOCCCNC(=O)Cn1nc(Cc2ccncc2)c2ccccc2c1=O | inactive: 8.41%
30 | COCC1CCN(Cc2nc(-c3ccc(OC)cc3)no2)CC1 | inactive: 8.78%
31 | Cc1nn(-c2ccccc2)c2nc(Cl)c(C(=O)O)cc12 | inactive: 13%
32 | O=C(CNS(=O)(=O)c1ccccc1)OCC(=O)c1ccc(F)cc1 | inactive: -23.7%
33 | CNCc1c(OCc2ccc(F)cc2)ccc2ccccc12 | inactive: 1.56%
34 | COc1ccc(Cl)cc1NC(=O)C1CCN(C(=O)C2CC(=O)N(c3ccc(C)cc3)C2)CC1 (stereo unspecified) | inactive: 6.92%
35 | Cc1cc(NC(=O)Cc2ccccc2)no1 | inactive: -3.51%
36 | CCCCOC(=O)CSC(=S)N(C)Cc1cccs1 | inactive: 27.4%
37 | Cc1nnc(SCC(=O)NCC2CCCO2)n1Cc1ccccc1 (stereo unspecified) | inactive: -1.24%
38 | O=C(NNC(=O)c1n[nH]c(=O)c2ccccc12)c1ccc(Br)cc1 | inactive: 17.6%
39 | COc1ccccc1CNc1nc(Nc2ccccc2OC)c2sccc2n1 | inactive: 1.3%
40 | COc1ccccc1CC(=O)Nc1ccc2c(c1)CCC2 | inactive: 20.7%
41 | Cc1cccc(C(=O)N[C@H](C(=O)NCCc2ccc(Cl)cc2)C(C)C)c1 | inactive: 16.6%
42 | Cn1c(Nc2ccc(F)cc2)nc2ccccc21 | inactive: 3.32%
43 | CCOc1ccc(NC(=O)C2CC(=O)N(c3ccccc3F)C2)cc1 (stereo unspecified) | inactive: -11.1%
44 | Nc1cccc2c1C(=O)N(C(=O)c1ccco1)C2=O | inactive: 1.44%

Row | SMILES | growth rescue (activation)
45 | Cc1cccc(-n2c(O)c(C=Nc3c(C)n(C)n(-c4ccccc4)c3=O)c3ccccc3c2=O)n1 | inactive: -0.952%
46 | O=C(Nc1ccc(F)cc1)Nc1cc(OCC(F)(F)F)cc(OCC(F)(F)F)c1 | inactive: 8.54%
47 | O=C(Nc1sc2c(c1C(=O)O)CCCC2)c1ccc(Cl)cc1 | inactive: -22.4%
48 | CN1/C(=C/C(=O)COC(=O)C2COc3ccccc3O2)C(C)(C)c2ccccc21 (stereo unspecified) | inactive: 4.56%
49 | CC(C)CN(C(=O)c1cccc(Cl)c1)c1c(N)n(CC(C)C)c(=O)[nH]c1=O | inactive: 2.66%
50 | COC(=O)c1cc(C(=O)Nc2nnc(CC(C)(C)C)s2)cc([N+](=O)[O-])c1 | inactive: 7.8%
51 | O=C(COc1ccc(-c2nnco2)cc1)Nc1cc([N+](=O)[O-])ccc1F | inactive: 18.7%
52 | Cc1cc(O)ccc1-c1cc(C(=O)NCc2cc(C(F)(F)F)cc(C(F)(F)F)c2)[nH]n1 | inactive: 13.1%
53 | O=C(Cn1nc(C(=O)O)c2ccccc2c1=O)Nc1ccc(Cl)c(S(=O)(=O)N2CCOCC2)c1 | inactive: 1.76%
54 | CC1CN(CCCCOc2ccc(Cl)c3ccccc23)CC(C)O1 (stereo unspecified) | inactive: 13.5%
55 | CC(C)c1nnc(SCC(=O)NC2CCCCC2)n1C | inactive: 7.24%
56 | O=C(c1ccc(=O)[nH]c1)N(Cc1cccs1)C1(C(=O)NC2CCCC2)CCCCC1 | inactive: 12.2%
57 | O=C(c1cncc(Br)c1)N1CCN(S(=O)(=O)c2ccccc2)CC1 | inactive: 23%
58 | COc1ccc(NC(=O)CN2CCN(Cc3ccccc3)CC2)cc1 | inactive: -2.26%
59 | O=[N+]([O-])c1ccc(N2CCN(Cc3ccc([N+](=O)[O-])o3)CC2)cc1 | inactive: 26.1%
60 | CCOc1ccccc1/C=N/NC(=O)c1cccc(S(=O)(=O)N2CCOCC2)c1 | inactive: -5.83%
61 | Cc1ccc(C)c(N(CC(=O)NC2CCCC2)C(=O)CCC(=O)Nc2nccs2)c1 | inactive: 9.57%
62 | COc1ccccc1C1N=C(c2ccccc2C)NO1 (stereo unspecified) | inactive: 16.2%
63 | CCN(CC(=O)NCc1ccco1)S(=O)(=O)c1ccc(F)cc1 | inactive: -6%
64 | CCN(CC)C(=O)c1cccc(-c2csc(C(O)c3ccccc3)n2)c1 (stereo unspecified) | inactive: 15%
65 | O=C(NN=C1C2CC3CC(C2)CC1C3)c1cccc(S(=O)(=O)N2CCOCC2)c1 | inactive: -5.76%
66 | O=C1NC(c2ccc(Br)cc2)=N/C1=C/c1ccco1 | inactive: 7.17%

Row | SMILES | growth rescue (activation)
67 | COc1ccc(CSCC(=O)NN=C2CCN(C)CC2)cc1 | inactive: 12.6%
68 | CCOC(=O)Cc1cc(-c2ccc(F)cc2)nc2ccc3ccccc3c12 | inactive: -9.37%
69 | Cc1csc(=O)n1CC(=O)Nc1ccc(C(C)C)cc1 | inactive: 16.3%
70 | CCOc1ccccc1CNC(=O)c1ccc2c(c1)N(Cc1ccc(C)cc1)CCS2 | inactive: 5.76%
71 | CC(C)NC(=S)N/N=C/c1sc(N2CCCCC2)nc1-c1cccs1 | inactive: 30.3%
72 | Cc1ccc(C(=O)N/N=c2\sc3ccccc3n2C)cc1 | inactive: 11.9%
73 | CC12Cc3ccc4ccccc4c3C=C1C[N+](C)(C)C2 (stereo unspecified) | inactive: -8.94%
74 | O=C(CN1C(=O)CSc2ccc(S(=O)(=O)N3CCOCC3)cc21)NCCCN1CCc2ccccc2C1 | inactive: -14.2%
75 | CC(C)OCCCn1c(=NC(=O)c2cccs2)c(C#N)cc2c(=O)n3ccccc3nc21 | inactive: 11%
76 | Cc1cc(Cl)ccc1NC(=S)NCc1ccc(S(N)(=O)=O)cc1 | inactive: -5.84%
77 | CCOC(=O)C1CCN(c2cc(C)nc3ccc(OC)cc23)CC1 | inactive: 1.97%
78 | O=C(c1cccc(C(=O)N2CCN(c3ccccc3F)CC2)c1)N1CCN(c2ccccc2F)CC1 | inactive: -22.3%
79 | O=C(CSc1nc2ccccc2c(=O)n1-c1ccccc1)NCC1CCCO1 (stereo unspecified) | inactive: -8.22%
80 | CCOc1ccc2ccccc2c1CNc1nnnn1C | inactive: 14.4%
81 | CC(C)C1NC(C(=O)O)Cc2c1[nH]c1ccccc21 (stereo unspecified) | inactive: 1.72%
82 | CCc1nc2ccc(C(=O)NCCOc3ccc(OC)cc3)cn2c1N(C)Cc1ccc(N(C)C)cc1 | inactive: 4.44%
83 | CCCCC(NC(C)=O)c1nc2ccccc2n1CCCC (stereo unspecified) | inactive: 7.35%
84 | COc1ccccc1C(=O)Nc1ccc2c3c(cccc13)CC2 | inactive: 8.52%
85 | CC(C)CC(N)c1csc(Nc2ccc(C(=O)c3ccccc3)cc2)n1 (stereo unspecified) | inactive: 18.3%
86 | CC(C)Oc1cccc(C(=O)C2CCCN(C(=O)c3csnn3)C2)c1 (stereo unspecified) | inactive: 5.12%
87 | CCOc1cc(C2NC(=O)NC(O)(C(F)(F)F)C2C(=O)c2ccc(OC)cc2)ccc1O (stereo unspecified) | inactive: 1.16%
88 | Cc1c(NC(=S)N/N=C/C=C/c2ccccc2)c(=O)n(-c2ccccc2)n1C | inactive: 12.2%

Row | SMILES | growth rescue (activation)
89 | CCOC(=O)c1c(NC(=O)CN2C(=O)NC(C)(c3ccc(OC(F)F)cc3)C2=O)sc(C)c1C (stereo unspecified) | inactive: 4.48%
90 | CCCc1cc2c(OC(=O)CC)c(-c3ccc(C(=O)OCC)o3)c(=O)oc2cc1OC | inactive: -6.62%
91 | CCn1c(=O)c(C(=O)CN2CCN(Cc3ccc4c(c3)OCO4)CC2)c(N)n(Cc2ccccc2)c1=O | inactive: -1.65%
92 | CCN(CC)S(=O)(=O)c1cccc(-c2nnc(SCC(=O)N3CCC(C(=O)O)CC3)n2N)c1 | inactive: -13.1%
93 | CCc1cc2c(COC(=O)c3cccc(S(C)(=O)=O)c3)cc(=O)oc2cc1O | inactive: 20.5%
94 | COc1ccc(CN(C)Cc2nc(Cc3ccccc3Cl)no2)cc1OC | inactive: 21%
95 | CC(C)CC1Nc2ccc(C(=O)NCCCN3CCOCC3)cc2NC1=O (stereo unspecified) | inactive: 9.57%
96 | O=C(N/N=C/C1CC=CCC1)c1cc(-c2cccnc2)nc2ccccc12 (stereo unspecified) | inactive: 14%
97 | COc1cc([N+](=O)[O-])ccc1NC(=O)CC1SC(=Nc2ccc(F)cc2)N(CCC2=CCCCC2)C1=O (stereo unspecified) | inactive: 7.56%
98 | Cc1ccc(CSc2ncnc3c2cnn3-c2ccc(C)cc2)cc1 | inactive: 21.4%
99 | CCc1nc(SCc2ccc(C(=O)OC)o2)n[nH]1 | inactive: -9.95%
100 | COC(=O)c1ccccc1OCCOCCOc1cccc2cccnc12 | inactive: 6.78%
101 | O=C(O)CSc1nc2sc3c(c2c(=O)n1-c1ccccc1)CCC3 | inactive: -28.5%
102 | Cn1c(CNC(=O)c2ccccc2F)nnc1SCC(=O)NCc1ccccc1 | inactive: -4.26%
103 | Cc1nc2ccc(S(=O)(=O)CCC(=O)Nc3ccc(Cl)cc3)cc2s1 | inactive: 1.96%
104 | O=C(O)C(=O)/C(=C\c1ccsc1)c1ccc2ccccc2n1 | inactive: -15.5%
105 | Cc1cccc(NC2=C/C(=N/S(=O)(=O)c3cccs3)c3ccccc3C2=O)c1 | inactive: -10.4%
106 | CC1CCN(c2ccc(C=O)o2)CC1 | inactive: -7.77%
